Hit rate of the full screen: of about 420,000 compounds, about 64,000 (15%) were called active. Inconclusive means that the source gave no clear call. Such entries were picked first, then a sample of the others. Calls come from the whole dose curve; as a rule, active = well fitted inhibition curve with a large enough effect; inconclusive = small, poorly fitted or top-dose-only effect; inactive = flat fitted curve, though single readings scatter. No potency is given beside an inconclusive call; the fits are too rough.
Test: qHTS for Inhibitors of human tyrosyl-DNA phosphodiesterase 1 (TDP1): qHTS in cells in absence of CPT; note: nearly all actives have a fitted effect of over 55% in size
Settings: DT40 Tdp1-/- hTDP1 cells, no CPT, ATP luminescence, 48 h; activity change, negative = growth inhibition: at 46.2 µM (top of the series) unless noted
How it was run: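 Cells were dispensed at 400 per well, compounds added by pin tool, plates incubated ≥48 hr at 37 °C, then CellTiter-Glo added for 30 min at room temperature before luminescence reading. Line: DT40 Tdp1-/- complemented with hTDP1; camptothecin omitted.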
For Cc1ccc(S(=O)(=O)/N=C(\N)Nc2nc(C)c3cc(C)ccc3n2)cc1, the activity change, negative = growth inhibition was inconclusive: -30.3% [inhibitor]. With Cc1nnc(N/N=C/c2cccc(C(F)(F)F)c2)n1N the “activity change, negative = growth inhibition” value was inactive: -5.11%. For CCCn1c(-c2cccs2)nc2ccccc21, the “activity change, negative = growth inhibition” value was inactive: -29.7%. With Cc1ccc(S(=O)(=O)Nc2ccc3c(c2)CC(=O)N([C@H](C)CO)C[C@H](C)[C@H](CN(C)Cc2ccc4c(c2)OCO4)O3)cc1 the Potency was active: 18.4 µM. With Cc1ccc(/C=N/NC(=O)C2COc3ccccc3O2)s1 (configuration not stated) the Potency was active: 1.64 µM. With Cc1noc2ncnc(N3CCN(c4cccc(Cl)c4)CC3)c12 the Potency was active: 9.2 µM. In the case of O=C(CN1C(=O)CC(c2ccc(F)cc2)=Nc2ccccc21)NCc1ccccc1Cl, the Potency was active: 25.9 µM. In the case of CN(C1CCCCC1)S(=O)(=O)c1ccc2c(c1)c(=O)c(C(=O)NCc1ccc(Cl)cc1)cn2C, the Potency was inconclusive [inhibitor, single point]. For O=C(CSc1nc2ccccc2nc1SCC(=O)N1CCCCC1)N1CCCCC1, the Potency was inconclusive [inhibitor, single point]. For Cc1ccc(C)c(Nc2nn3c(=O)c4ccc(C(=O)NCc5cccs5)cc4nc3s2)c1, the Potency was active: 14.6 µM. For COc1cccc(N2CCN(c3ncnc4onc(-c5ccc(Cl)cc5)c34)CC2)c1, the Potency was active: 16.4 µM. With CCc1ccc(C(C(=O)NCc2ccc(F)cc2)N(C(=O)c2csnn2)C2CC2)cc1 (configuration not stated) the Potency was inconclusive [inhibitor, single point]. For COc1ccc(-c2csc3ncnc(Cl)c23)cc1, the Potency was inconclusive [inhibitor, single point]. With CCC(NC(=O)Cn1cnc2c(=O)n(C)c(=O)n(C)c21)c1ccccc1 (configuration not stated) the Potency was inconclusive [inhibitor, partial curve, poor fit]. With COCCn1c(SCC(=O)N2CCCCCC2)nc2c(c1=O)SCC2 the Potency was inconclusive [inhibitor, single point]. In the case of COc1cccc(Nc2ncnc3nc[nH]c23)c1, the Potency was inconclusive [inhibitor, single point]. With O=C(O)Cc1sc(NC2CCCCC2)nc1-c1ccc(Cl)cc1 the Potency was inconclusive [inhibitor, single point]. For CC(C)(C)OC(=O)NCCCC[C@H](NC(=O)c1nc[nH]c1C(=O)NCc1ccc(CNC(=O)OC(C)(C)C)cc1)C(=O)OC(C)(C)C, the Potency was active: 16.4 µM. In the case of COC(=O)c1c(NC(=S)Nc2ccccc2Cl)sc(C)c1C, the Potency was inconclusive [inhibitor, partial curve]. For COc1ccc(C(=O)CC(Nc2ccc([N+](=O)[O-])cc2)c2ccc(Cl)cc2)cc1 (configuration not stated), the Potency was active: 18.4 µM. For O=C(CCc1nc2sc3c(c2c(=O)[nH]1)CCCC3)Nc1cccc(Cl)c1, the Potency was active: 20.6 µM. For CC(=O)c1ccc(-n2c(C)c(C(C)=O)c3cc(O)ccc32)cc1, the Potency was inconclusive [inhibitor, partial curve]. In the case of Cn1cc(-c2nc3cnc(N4CCNCC4)nc3n(-c3ccccc3)c2=O)c2ccccc21, the “activity change, negative = growth inhibition” value was inactive: 5.21%. In the case of CCOc1ccc(C2CC(c3c(O)c4ccccc4oc3=O)=NN2c2ccccc2)cc1OC (configuration not stated), the Potency was inconclusive [inhibitor, single point]. In the case of Cc1sc2nc3c4ccccc4c(NCc4ccco4)nn3c(=O)c2c1C, the Potency was inconclusive [inhibitor, single point]. For CC/C(=N\NC(=O)c1c[nH]c2ccccc12)c1cccs1, the Potency was inconclusive [inhibitor, partial curve]. For O=c1c2ccccc2nc2ccccn12, the “activity change, negative = growth inhibition” value was inactive: 1.11%. For Cc1ccc(-c2cc(=O)c3cc(C)ccc3[nH]2)cc1, the Potency was active: 3.66 µM. For CN(C)C(=O)c1ccc(-c2nc(-n3ccnc3)c3ccccc3n2)cc1, the Potency was inconclusive [inhibitor, single point]. With CCN1CCN(C(=O)c2ccc(COc3cccc(Cl)c3)o2)CC1 the “activity change, negative = growth inhibition” value was inactive: -23.6%. In the case of COc1ccccc1/C=C(/C(=O)OCC(=O)Nc1ccccc1C(C)C)c1ccccc1, the Potency was active: 20.6 µM. For Cc1ccc(OCC(=O)Nc2ccc(S(=O)(=O)N(Cc3ccccc3)c3ccccc3)cc2)cc1, the Potency was active: 4.61 µM. With CS(=O)(=O)Nc1cccc(-c2nc(Nc3ccncc3)c3ccccc3n2)c1 the Potency was inconclusive [inhibitor, single point]. For CC(=O)c1c(C)[nH]c(C(=O)COC(=O)c2c(-c3ccccc3)noc2C)c1C, the Potency was inconclusive [inhibitor, single point]. For Cc1ccccc1C(=O)NCC(=O)NNC(=S)NC(=O)c1ccccc1C, the activity change, negative = growth inhibition was inconclusive: -33.5% [inhibitor]. For Cc1ccccc1NC(=O)/C=C1\SC(=O)NC1=O, the Potency was inconclusive [inhibitor, single point]. In the case of c1cncc(CNc2nc(-c3ccoc3)nc3ccccc23)c1, the Potency was active: 20.6 µM. With Oc1ccc(N=Nc2n[nH]c(-c3ccccc3)n2)cc1 the Potency was inconclusive [inhibitor, single point]. With Oc1c(N=NC(=S)Nc2ccccc2F)c2ccccc2n1Cc1ccc(F)cc1 the Potency was active: 2.31 µM. In the case of C[C@@H]1CC=C[C@H]2[C@H]1C(=O)N(Cc1ccccc1)[C@H]2c1ccc(F)c(-c2ccc(N(C)C)cc2)c1, the Potency was active: 14.6 µM. With CCC(C)(C)C1CCC2(CC1)NC(=O)N(CC(=O)N(C)CC(=O)Nc1ccccc1C(F)(F)F)C2=O (configuration not stated) the Potency was inconclusive [inhibitor, partial curve, poor fit]. In the case of CCn1nnc(-c2ccccc2NC(=O)c2cc(OC)cc(OC)c2)n1, the Potency was inconclusive [inhibitor, partial curve]. In the case of O=C(CC1SC(=Nc2ccc3c(c2)OCCO3)NC1=O)Nc1ccc(F)cc1F (configuration not stated), the Potency was inconclusive [inhibitor, single point]. With COC(=O)[C@]12CCCCC=C1N(Cc1cccc3ccccc13)C(=O)[C@H](CC(=O)NCc1cccs1)C2 the Potency was inconclusive [inhibitor, single point]. With Cc1ccc(S(=O)(=O)CCc2nnc(NC(=O)COc3cccc(C)c3)s2)cc1 the Potency was inconclusive [inhibitor, partial curve]. With Cc1ccc(SCc2cc(=O)n3[nH]c(C)nc3n2)cc1 the activity change, negative = growth inhibition was inconclusive: -30.4% [inhibitor]. For CCOC(=O)c1c(-c2ccc(OC)c(OC)c2)csc1NC(=O)c1ccc(F)cc1, the Potency was inconclusive [inhibitor, full curve]. With COc1cc(/C=N/Nc2ccc([N+](=O)[O-])cn2)cc(OC)c1O the Potency was inconclusive [inhibitor, single point]. For CCN(C(=O)CN1C(=O)NC(c2ccccc2)(c2ccc(C)c(C)c2)C1=O)C1CCS(=O)(=O)C1 (configuration not stated), the Potency was inconclusive [inhibitor, single point]. For COc1cc2c(-c3ccccc3Cl)nc3c(c(C)nn3-c3ccccc3)c2cc1OC, the Potency was inconclusive [inhibitor, single point]. For CCOc1ccc(OCC)c(NC(=O)C2CCN(S(=O)(=O)c3c(C)noc3C)CC2)c1, the Potency was inconclusive [inhibitor, single point]. In the case of Cc1nc2ccc(S(=O)(=O)NC(C(=O)NCc3ccc(Cl)cc3)C(C)C)cc2s1 (configuration not stated), the “activity change, negative = growth inhibition” value was inactive: -3.97%. With N/C(=N\O)c1ccc(Cl)cc1Cl the “activity change, negative = growth inhibition” value was inactive: 3.25%. In the case of O=C(NCCCCc1ccccc1)C1CC(c2ccccc2C(F)(F)F)=NO1 (configuration not stated), the Potency was inconclusive [inhibitor, single point]. With CC1C=CC(C)C(C(=O)O)C1C(=O)O (configuration not stated) the “activity change, negative = growth inhibition” value was inactive: -2.89%. For COc1ccccc1CNC(=O)c1c(O)nc2cc(C)ccn2c1=O, the “activity change, negative = growth inhibition” value was inactive: -10.4%. With Cc1nc2c(-c3ccccc3)c(C)nn2c(C)c1CCC(=O)NCc1ccco1 the Potency was inconclusive [inhibitor, single point]. With COc1ccc(N2CC(O)(c3ccc(OC(F)F)cc3)[N+]3=C2CCCC3)cc1 (configuration not stated) the Potency was inconclusive [inhibitor, single point]. In the case of O=C(NC(=S)NCc1cccnc1)c1ccccc1[N+](=O)[O-], the Potency was inconclusive [inhibitor, partial curve]. In the case of NC(=O)Cn1cnc2c(nnn2-c2ccc(F)cc2)c1=O, the “activity change, negative = growth inhibition” value was inactive: -6.83%. For NC(Cc1ccc(Cl)cc1)C(=O)O (configuration not stated), the “activity change, negative = growth inhibition” value was inactive: 2.43%. With CC(=O)N1CCC(C(=O)Nc2nnc(C(C)C)s2)CC1 the “activity change, negative = growth inhibition” value was inactive: 13.9%. In the case of COc1ccc(N2C(=O)[C@@H]3[C@H](C2=O)[C@H]2c4ccccc4C=CN2[C@@H]3C(C)=O)cc1, the Potency was active: 16.4 µM. In the case of CCCN(CCC)CCCNC(=O)c1cn(CC)c2ccc(S(=O)(=O)N3CCc4ccccc4C3)cc2c1=O, the Potency was active: 18.4 µM. For O=C(Nc1ccc(N2CCN(C(=O)c3ccc(Cl)cc3)CC2)cc1)c1cc2ccccc2o1, the “activity change, negative = growth inhibition” value was inactive: -19.1%. With CCN1CCN(C(=O)c2ccc(N3CC4CC(C3)c3cccc(=O)n3C4)c(NC(=O)c3cc(OC)cc(OC)c3)c2)CC1 (configuration not stated) the “activity change, negative = growth inhibition” value was inactive: 15.8%. In the case of COc1cccc(CNCCSc2nnnn2C)c1OCc1ccc(Cl)cc1, the Potency was inconclusive [inhibitor, partial curve, poor fit]. With COc1cccc(NS(=O)(=O)c2ccc(OC)c(OC)c2)c1 the Potency was inconclusive [inhibitor, single point]. With O=C(NCCc1cccc(Cl)c1)c1ccc2c(c1)OCO2 the “activity change, negative = growth inhibition” value was inactive: -19.4%. For CCCCNC(=O)c1ccc(CNS(=O)(=O)c2ccc(Br)cc2)cc1, the “activity change, negative = growth inhibition” value was inactive: 0.952%. With Cc1cn(C2CC(O)C(CO)O2)c(=O)n(CCCc2ccccc2)c1=O (configuration not stated) the “activity change, negative = growth inhibition” value was inactive: -14.7%. For CC(C)c1ccc(N(CC(=O)Nc2ccc(S(=O)(=O)N3CCOCC3)cc2)S(C)(=O)=O)cc1, the Potency was inconclusive [inhibitor, partial curve, poor fit].

— PubChem BioAssay AID686978 (National Center for Advancing Translational Sciences (NCATS), 2013)
% is set by controls: 0 for no effect and ±100 for the full control effect; potency is the fitted concentration of half-maximal effect; tags give direction and shape of the fitted curve.
